# Laboratory results reported in the supplement of paper PMC8728848.
# Shown is part of a subset that was picked to be rich in the strongest signals.
# B1: Langerin (Homo sapiens) (protein)
# chain: LDYPRFMGTISDVKTNVQLLKGRVDNISTLDSEIKKNSDGMEAAGVQIQMVNESLGYVRSQFLKLKTSVEKANAQIQILTRSWEEVSTLNAQIPELKSDLEKASALNTKIRALQGSLENMSKLLKRQNDILQVVSQGWKYFKGNFYYFSLIPKTWYSAEQFCVSRNSHLTSVTSESEQEFLYKTAGGLIYWIGLTKAGMEGDWSWVDDTPFNKVQSARFWIPGEPNNAGNNEHCGNIKAPSLQAWNDAPCDKTFLFICKRPYVPSEPV[in this place human IgG1 Fc]
# Columns and labels:
# Assay in all cases: glycan array binding signal (z-score within array); higher = stronger binding
# Settings in all cases: glycan notation: IUPAC condensed, linker removed
# [1] = target: GlcNAc(a1-4)Gal(b1-4)GalNAc
# Outline: (§1)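 Glycan array binding is given as a within-array Z-score, which can be read as non-binding when negative. The arrays, 3228 of them, came from the Consortium for Functional Glycomics database and were retained only where the protein sequence was available. Z-scores were averaged across arrays of the same protein sequence at different concentrations or buffers and across linkers.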
# [2] = target: GlcNAc(b1-2)Man(a1-3)[GlcNAc(b1-4)][GlcNAc(b1-2)Man(a1-6)]Man(b1-4)GlcNAc(b1-4)GlcNAc
# Outline: as §1
# [3] = target: GlcNAc(b1-2)[GlcNAc(b1-4)]Man(a1-3)[GlcNAc(b1-4)][GlcNAc(b1-2)Man(a1-6)]Man(b1-4)GlcNAc(b1-4)GlcNAc
# Outline: as §1
# [4] = target: GlcNAc(b1-3)Gal
# Outline: as §1
# [5] = target: GlcNAc(b1-3)Gal(b1-4)GlcNAc
# Outline: as §1
# [6] = target: GlcNAc(b1-3)Gal(b1-4)GlcNAc(b1-2)[GlcNAc(b1-3)Gal(b1-4)GlcNAc(b1-6)]Man(a1-6)[GlcNAc(b1-3)Gal(b1-4)GlcNAc(b1-2)Man(a1-3)]Man(b1-4)GlcNAc(b1-4)GlcNAc
# Outline: as §1
# [7] = target: GlcNAc(b1-3)Gal(b1-4)GlcNAc(b1-3)Gal(b1-4)GlcNAc
# Outline: as §1
# [8] = target: GlcNAc(b1-3)Gal(b1-4)GlcNAc(b1-3)Gal(b1-4)GlcNAc(b1-2)[GlcNAc(b1-3)Gal(b1-4)GlcNAc(b1-3)Gal(b1-4)GlcNAc(b1-6)]Man(a1-6)[GlcNAc(b1-3)Gal(b1-4)GlcNAc(b1-3)Gal(b1-4)GlcNAc(b1-2)Man(a1-3)]Man(b1-4)GlcNAc(b1-4)[Fuc(a1-6)]GlcNAc
# Outline: as §1
# [9] = target: GlcNAc(b1-3)[GlcNAc(b1-6)]Gal(b1-4)GlcNAc
# Outline: as §1
# [10] = target: Man(a1-2)Man(a1-3)Man
# Outline: as §1
# [11] = target: Man(a1-2)Man(a1-3)[Man(a1-2)Man(a1-6)]Man(a1-6)[Man(a1-2)Man(a1-2)Man(a1-3)]Man(b1-4)GlcNAc(b1-4)GlcNAc
# Outline: as §1
# [12] = target: Man(a1-3)[Man(a1-6)]Man(b1-4)GlcNAc(b1-4)[Fuc(a1-6)]GlcNAc
# Outline: as §1
# [13] = target: Neu5Ac(a2-3)Gal(b1-3)GlcNAc(b1-2)Man(a1-3)[GlcNAc(b1-4)][Neu5Ac(a2-3)Gal(b1-3)GlcNAc(b1-2)Man(a1-6)]Man(b1-4)GlcNAc(b1-4)GlcNAc
# Outline: as §1
# [14] = target: Neu5Ac(a2-3)Gal(b1-3)GlcNAc(b1-3)Gal(b1-4)GlcNAc
# Outline: as §1
# [15] = target: Neu5Ac(a2-3)Gal(b1-3)GlcNAc(b1-3)GalNAc
# Outline: as §1
# [16] = target: Neu5Ac(a2-3)Gal(b1-3)GlcNAc(b1-6)GalNAc
# Outline: as §1
# [17] = target: Neu5Ac(a2-3)Gal(b1-4)GlcNAc(b1-2)Man(a1-3)[Neu5Ac(a2-3)Gal(b1-4)GlcNAc(b1-2)Man(a1-6)]Man(b1-4)GlcNAc(b1-4)[Fuc(a1-6)]GlcNAc
# Outline: as §1
# [18] = target: Neu5Ac(a2-3)Gal(b1-4)GlcNAc(b1-3)Gal(b1-3)GlcNAc
# Outline: as §1
# [19] = target: Neu5Ac(a2-3)Gal(b1-4)GlcNAc(b1-3)Gal(b1-4)GlcNAc(b1-6)[Gal(b1-3)]GalNAc
# Outline: as §1
# [20] = target: Neu5Ac(a2-3)Gal(b1-4)GlcNAc(b1-3)Gal(b1-4)[Fuc(a1-3)]GlcNAc
# Outline: as §1
# [21] = target: Neu5Ac(a2-3)Gal6S(b1-4)GlcNAc
# Outline: as §1
# [22] = target: Neu5Ac(a2-6)Gal(b1-4)GlcNAc
# Outline: as §1
# [23] = target: Neu5Ac(a2-6)Gal(b1-4)GlcNAc(b1-2)[Neu5Ac(a2-6)Gal(b1-4)GlcNAc(b1-4)]Man(a1-3)[GlcNAc(b1-4)][Neu5Ac(a2-6)Gal(b1-4)GlcNAc(b1-4)Man(a1-6)]Man(b1-4)GlcNAc(b1-4)GlcNAc
# Outline: as §1
# [24] = target: Neu5Gc(a2-3)Gal(b1-3)GlcNAc
# Outline: as §1
# [25] = target: Neu5Gc(a2-3)Gal(b1-3)[Fuc(a1-4)]GlcNAc
# Outline: as §1
# [26] = target: Neu5Gc(a2-3)Gal(b1-4)GlcNAc(b1-3)Gal(b1-4)GlcNAc(b1-2)Man(a1-3)[Neu5Gc(a2-3)Gal(b1-4)GlcNAc(b1-3)Gal(b1-4)GlcNAc(b1-2)Man(a1-6)]Man(b1-4)GlcNAc(b1-4)GlcNAc
# Outline: as §1
binder,measurement,setting,value
B1,glycan array binding signal (z-score),[1],-0.248
same,glycan array binding signal (z-score),[2],1.15
same,glycan array binding signal (z-score),[3],1.55
same,glycan array binding signal (z-score),[4],2.38
same,glycan array binding signal (z-score),[5],1.36
same,glycan array binding signal (z-score),[6],2
same,glycan array binding signal (z-score),[7],2.03
same,glycan array binding signal (z-score),[8],2.39
same,glycan array binding signal (z-score),[9],1.44
same,glycan array binding signal (z-score),[10],1.64
same,glycan array binding signal (z-score),[11],2.11
same,glycan array binding signal (z-score),[12],1.77
same,glycan array binding signal (z-score),[13],0.177
same,glycan array binding signal (z-score),[14],-0.965
same,glycan array binding signal (z-score),[15],-0.345
same,glycan array binding signal (z-score),[16],-0.95
same,glycan array binding signal (z-score),[17],-0.976
same,glycan array binding signal (z-score),[18],-1.03
same,glycan array binding signal (z-score),[19],-0.412
same,glycan array binding signal (z-score),[20],-0.997
same,glycan array binding signal (z-score),[21],2.2
same,glycan array binding signal (z-score),[22],-0.544
same,glycan array binding signal (z-score),[23],-0.343
same,glycan array binding signal (z-score),[24],0.6
same,glycan array binding signal (z-score),[25],-0.497
same,glycan array binding signal (z-score),[26],-0.443
